Reference: the supplement of paper PMC11741623
This is one part of the list. Interaction screen of human proteins with wild-type SARS-CoV-2 proteins by split-DHFR complementation in yeast, 1 µg/mL methotrexate. Value = fitness of the pair (three or more lineages) minus that of the viral protein without a human partner, on a scale set by negative (0) and fused positive (1) controls, mean of up to three cultures; higher = more likely to interact. Active = false discovery rate below 0.05 (one-sided t-test) in at least one culture. Nearly all pairs are not hits, and differences among them are mostly noise (correlation between cultures about 0.3); most hits were seen in one culture only. Human sequences are the Swiss-Prot entries looked up by gene name; the clone may be another isoform. NSP2 values were corrected by the authors for a growth advantage. Listed are human proteins with a hit and a random twelfth of the others.

What was measured:
Test in all cases: yeast fitness gain over the viral ORF with no human partner (scaled fitness); higher = more likely to interact
SARS-CoV-2 E = target: SARS-CoV-2 E
Experimental: (§1)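 Split mouse DHFR complementation in pooled diploid yeast: human ORFeome clones carry one fragment and viral ORFs the other; barcoded lineages compete in 1 µg/mL methotrexate and fitness is read by barcode sequencing in up to three cultures.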

SARS-CoV-2 M = target: SARS-CoV-2 M
Experimental: as §1

SARS-CoV-2 N = target: SARS-CoV-2 N
Experimental: as §1

SARS-CoV-2 NSP1 = target: SARS-CoV-2 NSP1
Experimental: as §1

SARS-CoV-2 NSP10 = target: SARS-CoV-2 NSP10
Experimental: as §1

SARS-CoV-2 NSP12 = target: SARS-CoV-2 NSP12
Experimental: as §1

SARS-CoV-2 NSP13 = target: SARS-CoV-2 NSP13
Experimental: as §1

SARS-CoV-2 NSP14 = target: SARS-CoV-2 NSP14
Experimental: as §1

SARS-CoV-2 NSP15 = target: SARS-CoV-2 NSP15
Experimental: as §1

SARS-CoV-2 NSP16 = target: SARS-CoV-2 NSP16
Experimental: as §1

SARS-CoV-2 NSP2 = target: SARS-CoV-2 NSP2
Experimental: as §1

SARS-CoV-2 NSP4 = target: SARS-CoV-2 NSP4
Experimental: as §1

SARS-CoV-2 NSP5 = target: SARS-CoV-2 NSP5
Experimental: as §1

SARS-CoV-2 NSP6 = target: SARS-CoV-2 NSP6
Experimental: as §1

SARS-CoV-2 NSP7 = target: SARS-CoV-2 NSP7
Experimental: as §1

SARS-CoV-2 NSP8 = target: SARS-CoV-2 NSP8
Experimental: as §1

SARS-CoV-2 NSP9 = target: SARS-CoV-2 NSP9
Experimental: as §1

SARS-CoV-2 ORF10 = target: SARS-CoV-2 ORF10
Experimental: as §1

SARS-CoV-2 ORF3A = target: SARS-CoV-2 ORF3A
Experimental: as §1

SARS-CoV-2 ORF3B = target: SARS-CoV-2 ORF3B
Experimental: as §1

SARS-CoV-2 ORF6 = target: SARS-CoV-2 ORF6
Experimental: as §1

SARS-CoV-2 ORF7A = target: SARS-CoV-2 ORF7A
Experimental: as §1

SARS-CoV-2 ORF7B = target: SARS-CoV-2 ORF7B
Experimental: as §1

SARS-CoV-2 ORF8 = target: SARS-CoV-2 ORF8
Experimental: as §1

SARS-CoV-2 ORF9B = target: SARS-CoV-2 ORF9B
Experimental: as §1

[1] = target: SARS-CoV-2 ORF9Bwu (the 73-codon ORF)
Experimental: as §1

SARS-CoV-2 S = target: SARS-CoV-2 S
Experimental: as §1

Row | Binder | yeast fitness gain (SARS-CoV-2 E) | yeast fitness gain (SARS-CoV-2 M) | yeast fitness gain (SARS-CoV-2 N) | yeast fitness gain (SARS-CoV-2 NSP1) | yeast fitness gain (SARS-CoV-2 NSP10) | yeast fitness gain (SARS-CoV-2 NSP12) | yeast fitness gain (SARS-CoV-2 NSP13) | yeast fitness gain (SARS-CoV-2 NSP14) | yeast fitness gain (SARS-CoV-2 NSP15) | yeast fitness gain (SARS-CoV-2 NSP16) | yeast fitness gain (SARS-CoV-2 NSP2) | yeast fitness gain (SARS-CoV-2 NSP4) | yeast fitness gain (SARS-CoV-2 NSP5) | yeast fitness gain (SARS-CoV-2 NSP6) | yeast fitness gain (SARS-CoV-2 NSP7) | yeast fitness gain (SARS-CoV-2 NSP8) | yeast fitness gain (SARS-CoV-2 NSP9) | yeast fitness gain (SARS-CoV-2 ORF10) | yeast fitness gain (SARS-CoV-2 ORF3A) | yeast fitness gain (SARS-CoV-2 ORF3B) | yeast fitness gain (SARS-CoV-2 ORF6) | yeast fitness gain (SARS-CoV-2 ORF7A) | yeast fitness gain (SARS-CoV-2 ORF7B) | yeast fitness gain (SARS-CoV-2 ORF8) | yeast fitness gain (SARS-CoV-2 ORF9B) | yeast fitness gain [1] | yeast fitness gain (SARS-CoV-2 S)
1 | IGHM, P01871 (protein) GSASAPTLFPLVSCENSPSDTSSVAVGCLAQDFLPDSITFSWKYKNNSDISSTRGFPSVLRGGKYAATSQVLLPSKDVMQGTDEHVVCKVQHPNGNKEKNVPLPVIAELPPKVSVFVPPRDGFFGNPRKSKLICQATGFSPRQIQVSWLREGKQVGSGVTTDQVQAEAKESGPTTYKVTSTLTIKESDWLGQSMFTCRVDHRGLTFQQNASSMCVPDQDTAIRVFAIPPSFASIFLTKSTKLTCLVTDLTTYDSVTISWTRQNGEAVKTHTNISESHPNATFSAVGEASICEDDWNSGERFTCTVTHTDLPSPLKQTISRPKGVALHRPDVYLLPPAREQLNLRESATITCLVTGFSPADVFVQWMQRGQPLSPEKYVTSAPMPEPQAPGRYFAHSILTVSEEEWNTGETYTCVVAHEALPNRVTERTVDKSTEGEVSADEEGFENLWATASTFIVLFLLSLFYSTTVTLFKVK | inactive: 0.0894 | inactive: -0.0296 | inactive: 0.0817 | inactive: -0.0117 | inactive: -0.00524 | inactive: 0.0283 | inactive: 0.0384 | inactive: 0.079 | inactive: -0.0293 | inactive: 0.0306 | inactive: -0.0228 | active: 0.392 | inactive: -0.0543 | inactive: 0.14 | inactive: -0.152 | inactive: -0.0704 | inactive: 0.0639 | inactive: 0.0432 | inactive: -0.0175 | inactive: -0.0152 | inactive: -0.0282 | inactive: 0.282 | inactive: 0.32 | inactive: 0.0141 | inactive: 0.0601 | inactive: 0.0148 | inactive: 0.0866
2 | MLLT11, Q13015 (protein) MRDPVSSQYSSFLFWRMPIPELDLSELEGLGLSDTATYKVKDSSVGKMIGQATAADQEKNPEGDGLLEYSTFNFWRAPIASIHSFELDLL | inactive: 0.0387 | inactive: -0.0318 | – | inactive: 0.00996 | inactive: -0.00237 | inactive: 0.0725 | inactive: 0.035 | inactive: 0.11 | inactive: 0.0396 | inactive: 0.0577 | inactive: -0.15 | inactive: 0.00177 | inactive: -0.00897 | inactive: -0.00789 | inactive: 0.0119 | inactive: -0.0316 | inactive: 0.0145 | inactive: -0.073 | inactive: -0.0604 | inactive: -0.0237 | inactive: 0.0227 | inactive: 0.0413 | inactive: 0.00621 | inactive: 0.055 | inactive: 0.0452 | inactive: 0.0112 | inactive: -0.0614
3 | GPS2, Q13227 (protein) MPALLERPKLSNAMARALHRHIMMERERKRQEEEEVDKMMEQKMKEEQERRKKKEMEERMSLEETKEQILKLEEKLLALQEEKHQLFLQLKKVLHEEEKRRRKEQSDLTTLTSAAYQQSLTVHTGTHLLSMQGSPGGHNRPGTLMAADRAKQMFGPQVLTTRHYVGSAAAFAGTPEHGQFQGSPGGAYGTAQPPPHYGPTQPAYSPSQQLRAPSAFPAVQYLSQPQPQPYAVHGHFQPTQTGFLQPGGALSLQKQMEHANQQTGFSDSSSLRPMHPQALHPAPGLLASPQLPVQMQPAGKSGFAATSQPGPRLPFIQHSQNPRFYHK | inactive: 0.105 | inactive: 0.0246 | inactive: -0.0418 | inactive: 0.144 | inactive: 0.0117 | inactive: -0.04 | inactive: 0.0162 | inactive: 0.0105 | inactive: -0.212 | inactive: 0.0335 | inactive: -0.133 | inactive: -0.237 | inactive: 0.023 | inactive: -0.0477 | inactive: -0.0232 | inactive: 0.0265 | inactive: 0.0374 | inactive: 0.0103 | inactive: 0.033 | inactive: -0.00111 | inactive: -0.0167 | inactive: 0.0334 | inactive: -0.0595 | inactive: -0.012 | inactive: 7.7e-05 | inactive: 0.0333 | inactive: 0.0202
